Test results: PubChem BioAssay AID2546 (National Center for Advancing Translational Sciences (NCATS), 2010)
In all, about 310,000 compounds went through this assay and about 11,000 (3.5%) were called active. The shares of active, inactive and inconclusive entries below differ from those in the screen. The call rests on the fitted dose curve; in most records, active means well fitted inhibition curve with a large enough effect; inconclusive means small, poorly fitted or top-dose-only effect, or effect the other way; inactive means flat fitted curve, though single readings scatter. No potency is given beside an inconclusive call; the fits are too rough.

Experiment: VP16 counterscreen qHTS for inhibitors of ROR gamma transcriptional activity;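 further: Gal4-VP16 expression switched on by copper sulfate through the metallothionein promoter; nearly all actives have a fitted effect of over 50% in size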
Settings: Drosophila S2 Gal4-VP16 UAS-luciferase, luminescence, 20 h; activity, negative = inhibition: at 53.6 µM (top of the series)
On the % scale 0 is the no-effect control and ±100 the full control effect; potency means the concentration at half of the fitted maximal effect; tags describe the fitted curve by direction and shape.

| SMILES | Potency | activity, negative = inhibition |
| --- | --- | --- |
| CC(C)CNC(=O)CC(=O)N/N=C/c1ccc(Br)cc1 | inactive |  |
| CC1=C(C#N)C(=O)NC(=O)/C1=C/c1ccc(-c2ccc(S(N)(=O)=O)cc2)o1 | inactive |  |
| CCOc1ccc(-c2[nH]ncc2-c2ccc(Cl)cc2)c(O)c1 | inconclusive [inhibitor, single point] |  |
| NCCc1c(-c2ccccc2)n(-c2ccccc2)c2ccccc12 | inconclusive [inhibitor, single point] |  |
| Cc1cc(NC(=O)c2cc(-c3ccc(C)s3)nc3ccccc23)no1 | inactive |  |
| O=C(CSCc1c(F)cccc1Cl)NNC(=S)NC1CCCCC1 | inconclusive [inhibitor, single point] |  |
| O=C(NNC(=S)NC(=O)c1ccccc1)c1ccc([N+](=O)[O-])cc1 | active: 1.41 µM |  |
| CCOC(=O)c1c(NC(=O)C(=O)N/N=C(\C)c2ccc(OC)cc2)sc2c1CCCCC2 | inconclusive [inhibitor, single point] |  |
| Clc1ccccc1CSc1nnc(-c2ccccn2)n1Cc1ccco1 | inconclusive [inhibitor, single point] |  |
| CN(Cc1nccn1C)C(=O)c1cc(COc2ccc3ncccc3c2)on1 | inconclusive [inhibitor, single point] |  |
| N#CC(c1ccccc1)c1ccc(C(=O)c2ccc(F)cc2)cc1 (stereo unspecified) | inconclusive [inhibitor, single point] |  |
| O=c1oc2ccccc2cc1-c1nc(-c2ccccc2)no1 | active: 8.91 µM |  |
| Cc1ccccc1C(=O)N1CCN(c2ccc(NC(=S)NC(=O)c3cccs3)cc2)CC1 | active: 5.62 µM |  |
| CCn1c(-c2ccc(C)cc2)n[nH]c1=S | active: 11.2 µM |  |
| COc1nc(NCCO)nc(Nc2cc(Cl)ccc2OC)n1 | inactive |  |
| COc1ccc(CCNC(=O)/C(C#N)=C/c2cccc(OCc3ccccc3)c2)cc1OC | inconclusive [inhibitor, single point] |  |
| Cc1cc(C)n(-c2nnc3c4ccccc4n(C)c3n2)n1 | inconclusive [inhibitor, single point] |  |
| CCCCOc1ccc(C(C)NC(=O)CCS(=O)(=O)Cc2ccc(C)cc2)cc1 (stereo unspecified) | inactive |  |
| CCCCn1c(SCC(=O)N2CCOCC2)nc2ccccc2c1=O | inactive |  |
| CCOc1ccc(C(=O)NC(=S)NC2CCCC2)cc1[N+](=O)[O-] | active: 15.8 µM |  |
| Cc1cc(/C=C2\SC(=Nc3ccc(F)cc3)NC2=O)c(C)n1-c1ccc(S(N)(=O)=O)cc1 | inconclusive [inhibitor, single point] |  |
| C=CCNC(=S)NNc1nc2sc3c(c2c(=O)[nH]1)CC(C)(C)OC3 | active: 10 µM |  |
| O=S(=O)(NCCc1csc(-c2ccc(C(F)(F)F)cc2)n1)c1ccc2c(c1)OCCO2 | inconclusive [inhibitor, single point] |  |
| Cc1c(Br)c([N+](=O)[O-])nn1C(C)C(=O)Nc1nccs1 (stereo unspecified) | inconclusive [inhibitor, single point] |  |

| SMILES | Potency | activity, negative = inhibition |
| --- | --- | --- |
| [O-]/C(=C(\C(=S)Nc1ccc(Cl)cc1)[n+]1ccccc1)c1ccc(OC(F)F)cc1 | inactive |  |
| O=C(NCC1CCCO1)C(C(=O)c1ccc(F)cc1)n1ccccc1=O (stereo unspecified) | inconclusive [inhibitor, single point] |  |
| Cc1cc(C(=O)COC(=O)CC2Sc3ccccc3NC2=O)c(C)n1-c1ccccc1 (stereo unspecified) | inconclusive [activator, single point] |  |
| CC(/C=C/c1ccccc1)=N/NC(=O)c1cc([N+](=O)[O-])cc([N+](=O)[O-])c1 | active: 0.178 µM |  |
| CCOC(=O)c1ccc(NC(=O)c2nc[nH]c2C(=O)N(CC)CC)cc1 | inconclusive [inhibitor, single point] |  |
| C=CCn1c(SCc2cccc(C#N)c2)nnc1-c1ccccc1O | inconclusive [inhibitor, single point] |  |
| CC(C)NCc1c(O)c(Br)cc2oc3c(c12)CCCC3 |  | inactive: -3.63% [at 0.365 µM] |
| Cc1ccc(N=C/C(C(=O)C(F)(F)F)=C(\O)c2cccs2)cc1 | inconclusive [inhibitor, single point] |  |
| Cc1cc(C)c2nc3sc(C(=O)N4CCOCC4)c(N)c3cc2c1 | inconclusive [inhibitor, single point] |  |
| OC[C@@H]1[C@@H](c2ccc(F)cc2)C(c2cccc(Cl)c2)=NN1c1ccccc1 | inconclusive [inhibitor, single point] |  |
| COc1cc(C(=O)NNC(=S)NC(=O)c2ccc(Cl)cc2)cc(OC)c1OC | inconclusive [inhibitor, single point] |  |
| Cc1cccc(N=N/C(=C\O)C(=O)c2ccc(Br)cc2)c1 | inconclusive [inhibitor, single point] |  |
| Cc1cccc(-c2n[nH]c(=S)n2/N=C/c2ccc(C)o2)c1 | active: 11.2 µM |  |
| CCOc1ccc(NS(=O)(=O)c2ccc(C(=O)N3CCCCC3)cc2)cc1 | inconclusive [inhibitor, single point] |  |
| CCNC(=S)NNC(=O)c1ccc2ncccc2c1 | inconclusive [inhibitor, single point] |  |
| CNC(=O)NC(=O)C(c1ccccc1)N(C)CC1COc2ccccc2O1 (stereo unspecified) | inactive |  |
| Cc1ccc(-n2ncc3c(SCc4cccnc4)ncnc32)c(C)c1 | inconclusive [inhibitor, partial curve, poor fit] |  |
| O=c1cc(N=Nc2ccc(Cl)cc2)[nH]c(=O)[nH]1 | active: 3.98 µM |  |
| O=C(N/N=C/c1c[nH]c2ccccc12)c1ccn(Cc2ccc(Cl)cc2)n1 | inactive |  |
| O=C(CCc1ccc(S(=O)(=O)NC2CCCCC2)cc1)NCc1cccnc1 | inconclusive [activator, single point] |  |
| CCCc1cc(=O)n2[nH]c(NCc3cccs3)nc2n1 | inconclusive [inhibitor, full curve, poor fit] |  |
| CCc1ccc(-c2cc(C(=O)N/N=C/c3c[nH]c4ccccc34)[nH]n2)cc1 | active: 12.6 µM |  |
| CC(C)C(C(=O)Nc1ccncc1)c1ccc(Cl)cc1 (stereo unspecified) | inconclusive [inhibitor, single point] |  |
| O=C(CCCn1c(=S)[nH]c2ccsc2c1=O)Nc1ccc2c(c1)OCCO2 | inconclusive [inhibitor, partial curve] |  |

| SMILES | Potency | activity, negative = inhibition |
| --- | --- | --- |
| O=C(Nc1cccc(S(=O)(=O)C(F)F)c1)c1ccc(Cl)c(S(=O)(=O)N2CCOCC2)c1 | inconclusive [inhibitor, single point] |  |
| O=C(Nc1ccccc1)c1ccc2c(c1)OCCCO2 | inconclusive [inhibitor, single point] |  |
| C=C(C)CNC(=S)N/N=C/c1ccc(N2CCOCC2)cc1 | active: 5.01 µM |  |
| Cc1ccc(-c2cnc(-c3ccncc3)o2)cc1 | inconclusive [inhibitor, single point] |  |
| CCOC(=O)c1c(CC(C)C)csc1NC(=O)CCl | inconclusive [inhibitor, single point] |  |
| COc1ccc(/C=N/NC(=S)Nc2ccccc2)cc1COc1ccccc1F | active: 3.16 µM |  |
| Cc1nn(CCc2nn[nH]n2)c2nc(-c3ccccc3)cc(C(F)(F)F)c12 | inconclusive [inhibitor, single point] |  |
| CC(=O)c1cccc(NC(=O)NCc2ccco2)c1 | inconclusive [activator, single point] |  |
| c1ccc(-c2cn(CC3CCCCC3)nn2)cc1 | inconclusive [inhibitor, full curve] |  |
| CCc1c(C)nc2ncnn2c1N1CCCC(C(=O)Nc2cc(F)ccc2C)C1 (stereo unspecified) | inactive |  |
| CCc1nnc(NC(=O)CSc2nnc(-c3ccccc3O)n2-c2ccc(C)cc2C)s1 | inconclusive [inhibitor, single point] |  |
| COc1cc(NC(=O)c2ccc(C)cc2C)ccc1NC(=O)c1cc2ccccc2o1 | inconclusive [inhibitor, single point] |  |
| O=C(COc1c(Br)cc(Br)c2cccnc12)N1CCCCC1 | inconclusive [inhibitor, single point] |  |
| COc1cc(C(=O)N/N=C/c2sccc2C)cc(OC)c1OC | inconclusive [inhibitor, single point] |  |
| CCOC(=O)Cn1nc(-c2ccccc2)c2cnc3ccc(C)cc3c21 | inconclusive [inhibitor, single point] |  |
| Cc1ccc(OCc2nnc(SC(C)C(=O)O)n2Cc2ccccc2)cc1 (stereo unspecified) | inactive |  |
| CN(C)CCCN(C(=O)c1ccc2c(c1)CCCC2)c1nc2ccc(Cl)cc2s1 | inconclusive [inhibitor, single point] |  |
| CCSc1nc(N2CCCCC2)c2c(c1C#N)CCCC2 | inactive |  |
| N#Cc1c2n(c3c(=S)nc[nH]c13)CCCCC2 | active: 17.8 µM |  |
| CCCc1cnc(N2CCN(C(=S)NC)CC2)nc1 | inconclusive [activator, full curve, poor fit] |  |
| FC(F)(F)c1ccccc1-n1c(-c2ccco2)n[nH]c1=S | inconclusive [inhibitor, single point] |  |
| COc1ccc(NC(=S)NCc2cccs2)c(OC)c1 | inconclusive [inhibitor, single point] |  |
| COc1ccc(N2C(=O)CC(N3CCCCC3)C2=O)cc1 (stereo unspecified) | inconclusive [inhibitor, single point] |  |
